Experimental data taken from patent US6475531B1, “Safe botanical drug for treatment and prevention of influenza and increasing immune function” (priority 2001, dated 2002).
Values after ≈ are worked out from the molar mass of the structure shown.

Test system: B/Hong Kong/76
Assay: Plaque inhibition assay in MDCK cells
Assay type: cell-based, influenza B viruses
Conditions: Influenza B virus

| Compound | IC50 [µg/mL] |
| --- | --- |
| NC12CC3CC(CC(C3)C1)C2 [Amantadine] | 125 (≈ 826 µM) |
| NC(=O)c1ncn([C@@H]2O[C@H](CO)[C@@H](O)[C@H]2O)n1 [Ribavirin] | 54 (≈ 221 µM) |
